Test results reported in the supplement of paper PMC10369915.
This is one part of the list. Cut-off read from the data, not from the text of the source: active = 3.2 or more and inactive = the rest. Most of these values are background signal.

Columns and labels:
Assay in all cases: enrichment score (SH2-bound / input frequency) (ratio); bacterial display of known human phosphotyrosine sites (pTyr-Var adds point mutants) read by sequencing; higher = stronger binding; tyrosines were phosphorylated by kinases first
Conditions in all cases: peptide library: pTyr-Var
[1] = biological target: SHP2 C-SH2 domain E139D
[2] = biological target: SHP2 C-SH2 domain wild-type
[3] = biological target: SHP2 N-SH2 domain L43F
[4] = biological target: SHP2 N-SH2 domain T42A
[5] = biological target: SHP2 N-SH2 domain T52S
[6] = biological target: SHP2 N-SH2 domain wild-type

Measured: enrichment score
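Note: displayed peptides selected on beads carrying the immobilized SH2 domain, with library peptides lacking any tyrosine serving as negative controls.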

B1: HP_Y272_G276R (peptide)
chain: LPSKDYAEVRR
inactive: [1] 0.657 | [2] 0.981 | [3] 0.546 | [4] 0.559 | [5] 0.607 | [6] 0.478

B2: HNRNPH2_Y210_R206W (peptide)
chain: QWPGPYDRPGA
inactive: [1] 0.747 | [2] 0.578 | [3] 0.691 | [4] 0.578 | [5] 0.611 | [6] 0.789

B3: HPRT1_Y198_D201N (peptide)
chain: LDYNEYFRNLN
inactive: [1] 0.92 | [2] 0.839 | [3] 0.617 | [4] 0.813 | [5] 0.915 | [6] 1.04

B4: HPRT1_Y198_D194N (peptide)
chain: LNYNEYFRDLN
inactive: [1] 1.18 | [2] 1.19 | [3] 1.09 | [4] 1.21 | [5] 1.49 | [6] 1.03

B5: HPRT1_Y81_L78Q (peptide)
chain: ADQLDYIKALN
inactive: [1] 0.516 | [2] 0.529 | [3] 0.724 | [4] 0.709 | [5] 0.584 | [6] 0.817

B6: HP_Y280 (peptide)
chain: VGRVGYVSGWG
inactive: [1] 0.972 | [2] 0.92 | [3] 0.953 | [4] 0.847 | [5] 0.946 | [6] 1.06

B7: HP_Y125_N129D (peptide)
chain: EGDGVYTLNDE
inactive: [1] 0.379 | [2] 0.474 | [3] 0.462 | [4] 0.536 | [5] 0.584 | [6] 0.508

B8: HPRT1_Y198_D194N_YF (peptide)
chain: LNFNEYFRDLN
inactive: [1] 1.16 | [2] 1.17 | [3] 1.11 | [4] 1.28 | [5] 1.15 | [6] 0.867

B9: HP_Y125_E130K (peptide)
chain: EGDGVYTLNNK
inactive: [1] 0.642 | [2] 0.618 | [3] 0.709 | [4] 0.619 | [5] 0.613 | [6] 0.652

B10: HNRNPH3_Y159_YF (peptide)
chain: GGFNNYGFGND
inactive: [1] 0.905 | [2] 0.621 | [3] 0.63 | [4] 0.518 | [5] 0.737 | [6] 1.06

B11: HPRT1_Y198_YF (peptide)
chain: LDFNEYFRDLN
inactive: [1] 1.07 | [2] 1.01 | [3] 1.11 | [4] 1.06 | [5] 1.04 | [6] 0.935

B12: HPRT1_Y198_D201G (peptide)
chain: LDYNEYFRGLN
inactive: [1] 0.739 | [2] 0.627 | [3] 0.699 | [4] 0.698 | [5] 0.711 | [6] 0.642

B13: HNRNPH3_Y159_N163S_YF (peptide)
chain: GGFNNYGFGSD
inactive: [1] 0.636 | [2] 0.588 | [3] 0.601 | [4] 0.469 | [5] 0.572 | [6] 0.614

B14: HPRT1_Y81_D80V (peptide)
chain: ADLLVYIKALN
inactive: [1] 1.65 | [2] 1.75 | [3] 1.35 | [4] 1.2 | [5] 1.42 | [6] 1.75

B15: HPRT1_Y198_D201N_YF (peptide)
chain: LDFNEYFRNLN
inactive: [1] 0.975 | [2] 1.3 | [3] 0.777 | [4] 0.756 | [5] 1 | [6] 0.782

B16: HNRNPH3_Y161_N163S (peptide)
chain: YNNYGYGSDGF
inactive: [1] 0.636 | [2] 0.454 | [3] 0.541 | [4] 0.438 | [5] 0.566 | [6] 0.592

B17: HNRNPH3_Y161_N163S_YF (peptide)
chain: FNNFGYGSDGF
inactive: [1] 0.9 | [2] 0.798 | [3] 0.743 | [4] 0.746 | [5] 0.921 | [6] 0.813

B18: HNRNPH3_Y161_YF (peptide)
chain: FNNFGYGNDGF
inactive: [1] 0.713 | [2] 0.769 | [3] 0.857 | [4] 0.771 | [5] 0.814 | [6] 0.682

B19: HPRT1_Y198_F199V (peptide)
chain: LDYNEYVRDLN
inactive: [1] 1.1 | [2] 0.854 | [3] 1.18 | [4] 0.712 | [5] 0.871 | [6] 0.563
